# Where “and” joins values, the source holds several entries; their conditions need not be identical. Equal values may be shown once.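 Compound exposure: 48 hours, 5 concentrations, 96-well plates. GI50 = concentration required for 50% inhibition of growth.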 Calls of active or inactive are those of the source. Cut-off read from the data, not from the text of the source: active = GI50 up to about 1.1 µM and inactive = higher.
# Tested on: NCI-H322M
# Assay: NCI anticancer screen, dose series, 48 h
row,SMILES,GI50
1,Cc1c(CNc2ccc(Cl)c(C(=O)NC(CC(=O)O)C(=O)O)c2)ccc2nc(N)nc(N)c12 (stereo not given),active: 0.466 µM
2,Nc1ccc2c(c1)C(=O)N(O)C2=O,inactive: > 100 µM
3,COCCOCCOCCC(=O)NC1CC2CCC1(C)C2(C)C (stereo not given),inactive: > 100 µM
4,COc1cc(Br)c(C2OCCCO2)cc1OCc1ccccc1,inactive: 64.6 µM
5,CCCCCCCCCCCCCCCCOCC(COP(=O)([O-])OCC[N+](C)(C)C)OCCCCCCCCCCCCCCCC (stereo not given),inactive: > 100 µM
6,CCC(NC(C)c1ccccc1)C(=O)c1ccc(OCc2ccccc2)c(OCc2ccccc2)c1 (stereo not given),inactive: > 100 µM
7,CCOC(=O)C1CC(C(=O)c2ccccc2)N2c3ccccc3-c3ccccc3C12 (stereo not given),inactive: > 100 µM
8,O=C(CCCN1CCC2(CC1)/C(=N/C1CCCCC1)NC(=O)N2c1ccccc1)c1ccc(F)cc1,inactive: 21.1 µM
9,CCOC(=O)c1cc2c(C(=O)c3ccc([N+](=O)[O-])cc3)c(C(C)=O)ccc2[nH]1,inactive: 72.3 µM
10,O=C(O)C1(C(=O)O)CC1(C(=O)O)C(=O)O,inactive: > 100 µM
11,Cc1ccc(Sc2ccc(C)cc2[N+](=O)[O-])c([N+](=O)[O-])c1,inactive: > 100 µM
12,CC(C)=CC(=O)CC(=O)C(=O)NCCNC(=O)C(=O)CC(=O)C=C(C)C,inactive: > 50 µM
13,Cc1ccc(CC(=O)Nc2ccc(NC(=O)CNC(=O)/C=C/c3ccc(-c4ccccc4)cc3)cc2C(=O)c2ccccc2)cc1,inactive: 5.21 µM
14,O=C1c2cc([N+](=O)[O-])cnc2S(=O)(=O)N1c1ccc(Oc2ccccc2)cc1,inactive: > 100 µM
15,CCOC(=O)/C(=C\Nc1c(C)n(C)n(-c2ccccc2)c1=O)C(=O)c1ccccc1,inactive: > 100 µM
16,O=C1NN=CN2C(=O)CCC12 (stereo not given),inactive: > 100 µM
17,COc1ccc(-c2c(C3=NCCN3)nnn2-c2ccccc2)cc1,inactive: > 100 µM
18,CN(C)c1ccc(/C=C(\NC(=O)c2ccccc2)c2nc3ccccc3c(=O)o2)cc1,inactive: > 100 µM
19,CCN(CC)CCNc1ccc(C)c2sc3ccc(O)cc3c(=O)c12,inactive: 2.64 µM
20,CCOc1ccc(/N=N/c2ccc3oc(=O)c(/C(C)=N/NC(=O)CC(=O)Nc4cccc(OC)c4)cc3c2)cc1,inactive: 16.5 µM
21,CC1(C)CC(=O)C(=CNC(N)=S)C(=O)C1,inactive: > 100 µM
22,CN(C)c1ccc(-c2c(C#N)c(-c3ccccc3)n(NS(=O)(=O)c3ccccc3)c(=O)c2C#N)cc1,inactive: 74.1 µM
23,COc1cc(CC2c3cc(OC)c(OC)cc3CCN2C)c(Oc2cc3c(cc2OC)-c2c(O)c(OC)cc4c2C(C3)N(C)CC4)cc1OC (stereo not given),inactive: 19.5 µM

row,SMILES,GI50
1,Brc1cc2nn(-c3ccccc3)nc2c2nonc12,inactive: > 100 µM
2,O=C(C(=O)n1ccc2ccccc21)n1ccc2ccccc21,inactive: > 100 µM
3,CC1(C)OCC(C2OC3OC(C)(C)OC3C2N)O1 (stereo not given),inactive: > 100 µM
4,Cc1nc(=O)[nH]c(NCCNCCO)c1C(=O)Nc1cccc2cc3ccccc3cc12,inactive: > 100 µM
5,Cc1cc2nc3c(C(OC4OC(CO)C(O)C(O)C4O)C(O)CO)nn(-c4ccc(F)cc4)c3nc2cc1C (stereo not given),inactive: > 100 µM
6,Nc1nc(N)c(NC(=O)CCCO)c(=O)[nH]1,inactive: > 100 µM
7,O=C1C=CC(=O)C(CNc2ccc(C(=O)OC34CC5CC(CC(C5)C3)C4)cc2)=C1,inactive: 18.4 µM
8,CN(C)/C=C/C(=CC=[N+](C)C)/C=C/N(C)C.[O-][Cl+3]([O-])([O-])[O-],inactive: > 100 µM
9,COc1ccc(-c2ccc(C(=O)C=P(c3ccccc3)(c3ccccc3)c3ccccc3)cc2)cc1,inactive: 14.3 µM
10,COc1c(O)cc2c(c1O)C(=O)/C(=C/c1ccc(O)cc1)CO2,inactive: 28.1 µM
11,Cc1ccc([N+](=O)[O-])cc1S(=O)(=O)Nc1ccc(C2=NNC(c3cccs3)C2)cc1 (stereo not given),inactive: 25 µM
12,COC(=O)c1cn(CCCC(=O)O)nn1,inactive: > 100 µM
13,O=C1Nc2ccc(S(=O)(=O)N(CCO)CCO)cc2/C1=C1/Nc2ccccc2C1=O,inactive: > 100 µM
14,CC(C)(C)c1cc(C(P(=O)(c2ccccc2)c2ccccc2)P(=O)(c2ccccc2)c2ccccc2)cc(C(C)(C)C)c1O,inactive: 2.61 µM
15,O=c1cccccc1NCCCCCCCCNc1cccccc1=O,inactive: > 100 µM
16,CC(=O)OCCn1cnc2c(NCC=C(C)C)ncnc21,inactive: > 100 µM
17,COC(=O)C(=O)C(C(C)=O)C(=O)NCc1ccccc1 (stereo not given),inactive: > 100 µM
18,COc1c(C(=O)O)oc2c(OC)cccc12,inactive: > 100 µM
19,CN(CCc1ccc(N)cc1)[C@H]1CCCC[C@H]1N1CCCC1,inactive: > 100 µM
20,CC(=O)NC(CCCCN(Cc1ccccc1)C(=O)N(CCCl)N=O)C(=O)NCc1ccccc1 (stereo not given),inactive: 57.9 µM
21,Nc1c(Br)cc2c(c1Br)Cc1cc(Br)ccc1-2,inactive: > 100 µM
22,O=C(NO)c1ccc(OCc2ccccc2)cc1,inactive: 22.8 µM
23,c1cc2c(ncc3cscc32)s1,inactive: > 100 µM

row,SMILES,GI50
1,O=C(/C=C/c1ccc(Cl)cc1)c1nc2ccccc2[nH]1,inactive: 28.9 µM
2,c1ccc(C2=NN=C3C(c4ccccc4)=Nc4ccccc4N3C2)cc1,inactive: 10.9 µM
3,COc1cccc2c(SCC(=O)Nc3ccccc3-c3ccccc3NC(=O)CSc3c4ccccc4nc4c(OC)cccc34)c3ccccc3nc12,inactive: > 100 µM
4,CSc1c(C#N)c(N)nc2c(/N=N\c3ccc(Br)cc3)c(N)nn12,inactive: 6.78 µM
5,Cc1ccc(-n2c(Cn3nnc(-c4cccnc4)n3)nn(C3OC(COC(=O)c4ccccc4)C(OC(=O)c4ccccc4)C3OC(=O)c3ccccc3)c2=S)cc1 (stereo not given),inactive: > 100 µM
6,Cc1nc2ccc(S(=O)(=O)Nc3ccccn3)cc2c(=O)n1NS(=O)(=O)c1ccccn1,inactive: > 100 µM
7,CC(C)(C)c1cc(CCC(=O)Nc2ccc(Cl)cc2Cl)nc(N)n1,inactive: > 100 µM
8,CCOC(=O)/C=C(\C(=O)OCC)n1cnc2c(N)ncnc21,inactive: 16.6 µM
9,Clc1ccc(C2=Cc3nc2c(-c2ccccc2)c2ccc([nH]2)c(-c2ccccc2)c2nc(c(-c4ccccc4)c4ccc([nH]4)c3-c3ccccc3)C=C2)cc1,inactive: > 62.5 µM
10,O=C(c1ccccc1)N1C(=S)N(c2ccc([N+](=O)[O-])cc2)C(=N/c2ccccc2)/C1=N\c1ccccc1,inactive: > 100 µM
11,O=S(=O)(/N=c1/[nH]c2ccccc2n1S(=O)(=O)c1ccccc1)c1ccccc1,inactive: 59.4 µM
12,c1ccc(CN2CCN3CCN(CC2)CCN(Cc2ccccc2)CC3)cc1,inactive: 15 µM
13,COc1ccc(C#CCC(OC2OC(CO)C(O)C(O)C2O)C(O)c2ccc(OC)c(OC)c2)cc1OC (stereo not given),inactive: > 100 µM
14,CC(Cl)CC(=O)OCC1CCCN2CCCCC12 (stereo not given),inactive: > 100 µM
15,CCCC(=O)Nc1cc(/C=C/C(=O)N2C[C@H]3C[C@@]34C2=CC(=O)c2[nH]cc(C)c24)n(C)c1,active: < 0.0025 µM
16,S=C(Nc1ccc(Cl)cc1)c1ccc(CN2CCCCC2)s1,active: 0.0617 µM
17,O=C1OCC(C(=O)c2cccc(O)c2)C1=O (stereo not given),inactive: > 100 µM
18,CN1CSC(=S)N(c2cccc(C(F)(F)F)c2)C1,inactive: 31 µM
19,CN1CCc2c1nc(-c1ccccc1)c1c2N(C)CC1,inactive: 48.5 µM
20,COC(=O)C1(C(=O)OC)CC2=C(S(=O)(=O)c3ccccc3)C[C@H](S(=O)(=O)c3ccccc3)[C@H]2C1,inactive: > 100 µM
21,O=C(O)CN1C(=O)C(Cc2ccc(O)cc2)N=C(c2cccc(O)c2)c2ccccc21 (stereo not given),inactive: > 100 µM
22,COC(=O)C1(C(=O)OC)N=C(C)OC1C(C)C (stereo not given),inactive: > 100 µM
23,Cc1ccc(SC(C)/C=C/NNC2=NN=C(c3ccccc3)C(c3ccccc3)N2)cc1 (stereo not given),inactive: 45.1 µM

row,SMILES,GI50
1,Cn1c(N)c(/N=N/c2ccc(S(N)(=O)=O)cc2)c(=O)n(C)c1=O,inactive: > 100 µM
2,Cc1ccc(-c2nc(C)c(C(=O)Nc3ccc(Cl)cc3)s2)cc1,inactive: 19.5 µM
3,COC1=Nc2ccccc2S(=O)(=O)C=C1,inactive: 18.2 µM
4,[N-]=[N+]=Nc1c([N+](=O)[O-])c(=O)n2c3c(cccc13)CCC2,inactive: 32 µM
5,Nc1ccc2nc3ccc(=O)cc-3n(-c3ccccc3)c2c1,inactive: > 100 µM
6,COc1c(C)cc2c(c1O)C1NC(C2)[C@H](O)N2C3COC(=O)[C@@]4(CS[C@@H](c5c(OC(C)=O)c(C)c6c(c53)OCO6)C12)NCCC1=C4NC2C=CC=CC12 (stereo not given in full),active: < 0.01 µM
7,CC12Nc3ccccc3N1C(=O)c1ccccc12 (stereo not given),inactive: > 100 µM
8,CC1(c2sccc2Cl)CC(c2sccc2Cl)=C(C#N)C(=C(C#N)C#N)N1 (stereo not given),inactive: 18.3 µM
9,O=C1C(=O)N(C2CCCCC2)C(=S)N1C1CCCCC1,inactive: > 100 µM
10,C/C=C(\C)C(=O)OC1C2C(C)C(=O)OC2C(O)C(C)C2C=CC(=O)C21C (stereo not given),inactive: 13.1 µM
11,CO[C@H]1C=C[C@@]23c4cc5c(cc4CO[C@]2(O)CN(C)[C@H]3C1)OCO5,inactive: > 100 µM
12,CSc1c(C#N)c(O)n(-c2ccc(Cl)cc2)c(=O)c1C(C)=O,inactive: 36.6 µM
13,O=c1ccn(C2OC(CN(O)CCC3C(O)C(CO)OC3n3ccc(=O)[nH]c3=O)C(O)C2O)c(=O)[nH]1 (stereo not given),inactive: > 100 µM
14,CN1C(=O)CCC1c1ccc2c(c1)oc(=O)n2C (stereo not given),inactive: > 100 µM
15,COc1c(Cl)cc(Cl)cc1S(=O)O,inactive: > 100 µM
16,COC(=O)C1=C(C)C(=O)[C@]23C(CCCC[C@H]12)C(=O)[C@H](C(=O)OC)C3C (stereo not given in full),inactive: > 100 µM
17,CC#CC#C/C=C1\C=CC2(OC=CC2OC(C)=O)O1 (stereo not given),inactive: > 100 µM and inactive: > 53.6 µM
18,CC1C=CC(O)[C@]2(CO)CC3(CCC12)OCCO3 (stereo not given in full),inactive: > 100 µM
19,CC(C)=CCC/C(C)=C/C=C/C(C)=C/C=C/C(C)=C/C=C/C=C(C)/C=C/C=C(C)/C=C/[C@H]1C(C(C)(C)O)CC[C@]1(C)O (stereo not given in full),inactive: 52.4 µM
20,CCOC(=O)C(Cc1cn(S(=O)(=O)c2ccccc2)c2ccccc12)(NC(C)=O)C(=O)OCC,inactive: > 100 µM
21,CN(Cc1cnc2nc(N)nc(N)c2n1)c1ccc(C(=O)NC(CCC(=O)O)C(=O)O)cc1 (stereo not given),active: 0.114 µM

# Source: ChEMBL document CHEMBL1201862, “PubChem BioAssay data set” (2004)
